PubChem BioAssay AID2100 (National Center for Advancing Translational Sciences (NCATS), 2009)
In all, about 300,000 compounds went through this assay and about 1,200 (0.4%) were called active. The inconclusive results got no clear call from the source; some entries with a clear call stand among them for comparison. Calls follow the shape of the dose curve; as a rule, active = well fitted inhibition curve with a large enough effect; inconclusive = small, poorly fitted or top-dose-only effect, or another doubt; inactive = no such curve, though single readings can be large or run the other way. Where the call is inconclusive, the potency comes from a doubtful curve fit.

Target: Lysosomal alpha-glucosidase (Homo sapiens) (UniProt P10253)
Assay: qHTS Assay for Inhibitors and Activators of Human alpha-Glucosidase Cleavage of Glycogen
Conditions: recombinant GAA, glycogen substrate, Amplex Red glucose oxidase fluorescence; series mostly up to 76.4 µM
In short: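 qHTS, 1536-well; enzyme 4 nM final; cpd up to 77 uM; substrate bovine liver glycogen 30 ug; 50 mM citrate/phosphate pH 5.0, 0.01% Tween-20; 37 C, 40 min; Amplex Red detection 45 min RT; Hill fit → AC50.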
Potency is read from the fitted curve at half-maximal effect.

Row | SMILES | Potency
1 | COc1ccc(N=Cc2nc(-c3ccco3)oc2O)cc1 | inconclusive: 35.2 µM [inhibitor, single point]
2 | CC(=O)Nc1ccc(Nc2nc(-c3ccccc3)nc3ccccc23)cc1 | inactive
3 | Fc1cccc(/C=N/Nc2nccnc2Cl)c1 | inactive
4 | C=CCc1cc(/C=C2/NC(=O)N(CC(=O)OC)C2=O)cc(OC)c1O | inconclusive: 12.6 µM [inhibitor, partial curve]
5 | c1cc(CNc2ccc3c(c2)OCO3)ccn1 | active: 31.6 µM
6 | COc1cc2cc(-c3ccc(O)cc3O)nc(C)c2cc1OC | inconclusive: 31.6 µM [inhibitor, partial curve]
7 | COc1ccccc1NNC(=O)c1cccnc1Oc1ccccc1 | inconclusive: 50.1 µM [inhibitor, single point]
8 | Cc1ccc(NC(=S)Nc2cccc3cnccc23)cc1 | inactive
9 | C=CC[n+]1c(-c2ccc(C)cc2)csc1NNC(=O)Nc1ccccc1 | active: 25.1 µM
10 | CS(=O)(=O)c1ccc(C(=O)Nc2ccc(N3CCCC3)cc2)c(Cl)c1 | inconclusive: 14.1 µM [inhibitor, partial curve]
11 | COc1ccc(N/N=C(/C(N)=O)C2=NC(C)(C)Cc3ccccc32)cc1 | inconclusive: 50.1 µM [inhibitor, single point]
12 | CCN/N=C(\Cc1nc2ccccc2[nH]1)c1ccccc1 | inconclusive: 31.6 µM [inhibitor, single point]
13 | NNC(=O)C(=O)Nc1ccc(O)cc1 | inconclusive: 11.2 µM [inhibitor, partial curve]
14 | O=C1NC2(CCC3(CC2)OCCO3)NN1c1ccc(Cl)cc1 | inconclusive: 3.98 µM [inhibitor, full curve]
15 | NS(=O)(=O)c1ccc(Nc2nc(-c3ccc(O)cc3O)cs2)cc1 | inconclusive: 28.2 µM [inhibitor, single point]
16 | O=C(Nc1sc2c(c1C(=O)Nc1ccccc1Cl)CCCC2)c1ccccc1F | inactive
17 | Cc1nc2ccc(Br)cn2c1NC(C)(C)C | inconclusive: 15.8 µM [inhibitor, partial curve]
18 | O=C(Nc1ccc(N2CCCC2)c(S(=O)(=O)Nc2cccc(C(F)(F)F)c2)c1)c1cccs1 | inconclusive: 20 µM [inhibitor, partial curve]
19 | COc1ccc(C(=O)NNS(=O)(=O)c2ccccc2)cc1OC | inconclusive: 22.4 µM [inhibitor, partial curve]
20 | COc1cccc(N2C(=O)C(Cc3c[nH]c4ccccc34)NC2=S)c1 (stereo unspecified) | inconclusive: 28.2 µM [inhibitor, single point]
21 | CCCCNC(=O)c1ccc(Cn2c(=S)[nH]c3c([nH]c4ccc(OC)cc43)c2=O)cc1 | inactive
22 | Cc1ccc(N2C(=O)C(CC(=O)Nc3ccc(F)cc3)N(CCC3=CCCCC3)C2=O)cc1 (stereo unspecified) | inactive
23 | CCc1nn(CC(=O)Nc2ccc(C)c(F)c2)c(=O)c2cc3cc(C)ccc3n12 | inactive

Row | SMILES | Potency
24 | Cc1cccc(C)c1Nc1c(-c2ccccc2Cl)nc2cnccn12 | inconclusive: 7.94 µM [inhibitor, partial curve]
25 | COc1cc(/C=N/NC2=NC(C)(C)Cc3ccccc32)cc(OC)c1OC | inconclusive: 22.2 µM [activator, single point]
26 | Cc1nc2c(c(C)c1CCC(=O)N1CCN(c3ccccc3)CC1)c(=O)n(C)c(=O)n2C | inconclusive: 5.01 µM [inhibitor, full curve, poor fit]
27 | CCN(CC)CCNC(=O)c1ccc(N2CCCCC2)c(NS(=O)(=O)c2ccc(C)cc2)c1 | inconclusive: 20 µM [inhibitor, partial curve]
28 | c1ccc(CNc2nc(-c3ccccc3)nc3ccccc23)cc1 | inactive
29 | Cc1ccc(O)c(NC(=O)CSc2n[nH]c(C)c2[N+](=O)[O-])c1 | inconclusive: 11.2 µM [inhibitor, partial curve]
30 | Cn1c(SCC(=O)NCc2ccco2)nnc1-c1c[nH]c2ccccc12 | inconclusive: 15.8 µM [inhibitor, partial curve, poor fit]
31 | O=C(NC1CCCCC1)C(c1ccccc1)N1CCc2ccccc21 (stereo unspecified) | inconclusive: 6.26 µM [inhibitor, single point]
32 | Cc1c(N/N=C(\C#N)C(=O)c2ccccc2)c(=O)n(-c2ccccc2)n1C | inconclusive: 31.6 µM [inhibitor, single point]
33 | Cc1cccc(OC(=O)CSc2nnc(-c3ccc4c(c3)OCO4)o2)c1C | inconclusive: 7.08 µM [inhibitor, single point]
34 | O=[N+]([O-])c1cc(/C=N/Nc2nc(N3CCCCC3)nc(N3CCCCC3)n2)ccc1O | inactive
35 | CC1=CC(=O)C(C(C)C)=C/C1=N/OS(=O)(=O)c1ccccc1 | inactive
36 | O=C(CCOc1ccccc1)N1CCN(c2ccc(O)cc2)CC1 | active: 6.31 µM
37 | Cc1ccc(Nc2ccccc2N)cc1 | active: 50.1 µM
38 | Cc1nn(C)c(C)c1N=Cc1c(O)ccc2ccccc12 | inconclusive: 8.91 µM [inhibitor, full curve]
39 | N#Cc1nc(-c2cccs2)oc1NCCN1CCOCC1 | inconclusive: 17.8 µM [inhibitor, single point]
40 | CCOC(=O)c1sc(Nc2nc3cc4c(cc3s2)OCO4)cc1C | inconclusive: 35.5 µM [inhibitor, partial curve]
41 | COc1ccc(C(=O)NNC2=CC(=O)CC(C)(C)C2)cc1 | inconclusive: 31.6 µM [inhibitor, partial curve]
42 | CCCCn1c(N)c(NCc2ccccc2OC)c(=O)[nH]c1=O | inconclusive: 39.5 µM [activator, single point]
43 | O=C(CN1CCOCC1)NNc1c2ccccc2nc2ccccc12 | inconclusive: 3.55 µM [inhibitor, full curve]
44 | Cc1cccc(-c2cc(C(=O)Nc3ccc4c(c3)OCCO4)c3ccccc3n2)c1 | inactive
45 | Clc1cnc(N/N=C/c2cccs2)c(Cl)c1 | inconclusive: 17.6 µM [inhibitor, partial curve]
46 | CCCCc1ccc(NC(=S)NCc2ccc(OC)cc2)cc1 | inconclusive: 11.2 µM [inhibitor, full curve, poor fit]
